Test results published in the RNAGym collection of RNA variant scans (doi:10.7554/elife.90254).
The source gives no read counts; variants with many changes may rest on few reads.

B1: LINE1-mini (parent)
chain: GGCAGAGCUCAACACAGCGUGGCAAAGUGGCUGUGGCUAGACUGCC

Variants of: B1
Assay: self-cleavage, relative activity (ratio to wild type); higher = more cleavage; in vitro, sequencing; the parent is a self-cleaving ribozyme

Variant	self-cleavage
C15G G22A C46A	0.07
C15U G30C U38C A39G	0.02
A16C C42U C46A	0.05
C15G C18U C45A	0.02
C15G C37G A39U	0.02
C15G G22C C23A A25C C45A	0.01
A16C A26C G27C U34G	0.02
C15G C31A A39G	0.01
C15U U28G G29A G30C U32G	0.04
C15G G19U G30C G33U C42A	0.02
C15A C42U C45G C46A	0.05
A16C G17U A39G	0.03
C15G C18A A41U C46U	0.03
A16C G29U C37A G40A	0.17
C15A G17U U34A	0.09
C15G A25U A41C C42A G44C C45A	0.01
C15G A16U C18A G19U U34C C37U U43A	0.01
C15G C18U C31U	0.03
C15U C23A G35C C46U	0.05
A16C G17A G19U	0.04
C15U C18A C31U	0.02
C15U G19U U20C A25G	0.26
C15U U20A U34A	0.11
C15G U20A U34G G44U	0.03

Variant	self-cleavage
C15U G17U C23U	0.08
C15U U38A A41C C46G	0.01
A16C G17A G29U	0.12
C15A G17U A41U C42U	0.08
C15U C37U G44C	0.14
C15A C23A G33C U34A	0.06
C15U G21C C45A	0.4
C15G G29C G30C	0.01
C15A G30A C37U U38G A39G G40U	0.02
C15U A16U U34G A41G	0.07
C15A G17U G40U	0.14
C15U C23A U34G G36U G44U	0.03
C15G G35U G40A G44C	0
A16C A26G U43C	0.01
C15A G33A C37U C45A	0.03
C15G C18U C37A A39U G40A G44A	0.04
C15U U20A A24C G40U	0.09
C15G G19U G36A G40A	0.03
A16C U20C G22A A26U G27A G30U	0.05
C15G A24U A39C	0.03
C15U G29C G30C U34G G44U	0.01
C15U C18A A26G G30U A41G C42U	0.04
C15A C23A G36U	0.04
C15G U28A C46A	0.04

Variant	self-cleavage
C15G A16G C23U A39C G40U	0.01
C15U G22A C31G U32G	0.04
A16C G22C U28C	0.03
C15U A25G C46A	0.29
C15A C23G A26U A41C G44C	0.03
C15G U34G C46A	0.02
C15U G17C U28G	0.03
C15G U28C G40U C45U	0.02
A16C G35U C37A A39C C45U	0
C15U C18A U28C C31G C37U C45A	0
C15U G21A G40C	0.01
C15U A25G U43C	0.14
C15U G30U G40U	0.21
C15U G19U G22A A25C U28A C31A G35C	0.14
C15A C23G U28A	0.02
C15A G19A A26U U34A	0.03
C15G U32A G36A A39U G40U	0.01
A16C G35A A41U	0.01
C15G A16G G21U U32A C42U	0.01
C15U G19C U28A C31A	0.6
A16C A26C G33A C45U	0.03
C15A C18A G22U G29C	0.04
A16C C18A U20C	0.14
C15A U32C A39U G40U A41C	0.08

Variant	self-cleavage
C15A U34G C37U	0.09
C15A G30U G36U	0.15
C15A G27C G33U	0.1
C15A C37G C42G	0.02
C15A C18U C46U	0.14
C15A U20G C46G	0.05
C15A C18U G22C	0.04
A16C A26C G29C C31A U32C U43C	0.09
C15U G22U A25U	0.4
C15A G17A A39C	0.02
C15U C31A C45A	0.02
A16C G40A C42U C45G	0.05
C15G A26U G29C	0.24
C15G G19A U20G G30C U43A	0.03
C15U C18U A26C U32A G44U	0.02
A16C A25G C31G U43G	0.04
C15U C18A G21C	0.03
C15U G19A C37A U43A	0.12
C15U G40U G44C	0.03
C15A G33C A41G C45G	0.02
A16C A24G G44A	0.01
C15U G30A U34A	0.21
A16C A24C A26C	0.04
C15G G22A A39C	0.04

Variant	self-cleavage
C15A G30C U34A	0.06
C15G A26U U32G C45U	0
C15A G17C A25U G44U	0.03
C15U G19C G27U C31A U34A A39C	0.14
C15A C31A C37G A39U	0.03
C15A G17U G30C C45A	0.01
C15A G30C C31A	0.02
C15A G22A A26U	0.07
C15U G21C U38G G40C	0.04
C15G C42A C46A	0.09
A16C G27A G29U G30U U34C	0.1
C15G G22C C23U U28A C31U	0.01
C15A U20G A26C	0.09
A16C G35C A41G C46U	0
C15G C23G U28A U34C	0.01
A16C G29U G36C	0.05
A16C U20A A24G G33A U38A	0.01
C15U U38C C42A C46U	0.11
C15U G22C C46A	0.29
C15U G19C U20A G22A G33U G35A	0.09
C15U G33U U34A	0.11
C15U G17U U38G	0.06
C15G C18A G29C	0.02
C15A U28G G40C	0.02

Variant	self-cleavage
C15G A16U C18A C31A U38G	0.04
A16C C18A U28A G36U	0.03
C15U G19A U43A C45U	0.05
C15U A16G G35C A41U	0.09
C15G A16G G29A	0.02
C15U A26C U28G U43C	0.04
C15G G19A A25U G27A G30U G35A	0.03
A16C G36U G44A	0.02
A16C G17A G21A C46U	0.11
A16C G19A A26G G35C	0.02
C15A U20C C31G C42U	0.05
C15A G17U C37U C42U U43C C45G	0.03
C15G A26C U38A	0.05
C15G A25C G29U	0.12
C15U U32C C42A	0.08
C15U A39U C42A	0.02
C15A G27A U28G A39U	0.03
A16C C18A C31A C42A	0.01
C15G A41C C46U	0.03
C15A G36U C37U	0.07
C15U G17A G27U	0.08
C15A G33A G36U C45A	0.03
C15A G21A A26G	0.08
C15G U28G A41G C42G	0.01

Variant	self-cleavage
C15G G22C C37G	0.03
C15A G27U U32C C42A	0.05
C15G C18G C37G	0.01
C15U G27U U28C C45G	0.06
C15A G19U G40U A41U U43C	0.04
A16C G35A C45U	0.07
C15U G17C U28C U38A	0.24
C15G A25C G33C C42A	0.05
A16C C18G C42G	0.04
C15A G21A G27U U34C U43C C45G	0.02
C15U G22C A24C	0.06
C15A G21U U34G G36U G40U	0.03
C15A G21C G35U	0
C15A C23G U43C	0.05
C15U G36A G44U	0.11
A16C G21C G22C A25G C31G	0.02
C15U G29U C45A	0.07
C15U G19A U20G G29A U32G C46U	0.01
A16C G33A A39G	0.02
C15A U20C U28A G29A	0.02
C15A G36C G44U	0.03
C15U U20C A25C C37U	0.05
C15U A25U G30U G40U	0.08
